{
  "source": "PubChem BioAssay AID624417",
  "about": "(National Center for Advancing Translational Sciences (NCATS), 2012)",
  "note": "The whole screen tested about 410,000 compounds, of which about 6,400 (1.6%) were called active. The inconclusive results got no clear call from the source; some entries with a clear call stand among them for comparison. Calls come from the whole dose curve; as a rule, active = well fitted inhibition curve with a large enough effect; inconclusive = small, poorly fitted or top-dose-only effect; inactive = no such curve, though single readings can be large or run the other way. No potency is given beside an inconclusive call; the fits are too rough. Potency is the fitted concentration of half-maximal effect; tags give direction and shape of the fitted curve.",
  "data": [
    {"biological_target": "Glucagon-like peptide 1 receptor (Homo sapiens) (UniProt P43220)", "sequence (P43220 whole entry, looked up)": "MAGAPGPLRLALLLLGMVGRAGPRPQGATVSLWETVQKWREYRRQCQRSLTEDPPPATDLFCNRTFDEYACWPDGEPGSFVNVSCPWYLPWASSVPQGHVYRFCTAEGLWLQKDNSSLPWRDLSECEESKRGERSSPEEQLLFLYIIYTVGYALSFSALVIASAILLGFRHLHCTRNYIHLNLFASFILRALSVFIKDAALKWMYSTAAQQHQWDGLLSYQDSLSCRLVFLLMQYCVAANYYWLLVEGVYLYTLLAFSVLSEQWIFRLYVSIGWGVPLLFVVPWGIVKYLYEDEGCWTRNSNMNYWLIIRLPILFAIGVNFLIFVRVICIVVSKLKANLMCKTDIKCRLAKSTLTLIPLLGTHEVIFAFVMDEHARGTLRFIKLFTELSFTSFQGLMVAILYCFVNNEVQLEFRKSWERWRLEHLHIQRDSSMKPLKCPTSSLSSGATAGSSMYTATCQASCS", "test": "qHTS of GLP-1 Receptor Inverse Agonists (Inhibition Mode); note: nearly all actives have a fitted effect of over 55% in size", "settings": "HEK293 GLP-1R CRE-luciferase, luminescence, 24 h, GLP-1R form is constitutively active; series mostly up to 38.3 µM", "in_short": "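Inverse agonists were sought by their lowering of basal cAMP reporter luciferase output in HEK293 cells stably carrying constitutively active human GLP-1R, after 24 h compound treatment.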", "values": [
      {"smiles": "COc1cccc(Nc2nc(-c3sc(NC(=O)c4ccco4)nc3C)cs2)c1", "Potency": "inconclusive [inhibitor, partial curve, poor fit]"},
      {"smiles": "Cc1cc(NC(=O)c2cccc(S(=O)(=O)N3CCCCCC3)c2)no1", "Potency": "inconclusive [inhibitor, single point]"},
      {"smiles": "COc1ccc(CN2CCN(C(=O)c3cccc4ccccc34)CC2)cc1OC", "Potency": "inactive"},
      {"smiles": "CCCn1c(Nc2cccc(OC)c2)nc2ccccc21", "Potency": "inconclusive [inhibitor, full curve]"},
      {"smiles": "Cc1onc(C(=O)N2CCN(c3ccccc3F)CC2)c1-c1ccccc1Cl", "Potency": "inconclusive [inhibitor, partial curve, poor fit]"},
      {"smiles": "Cn1c(=O)c([N+](=O)[O-])c(-n2ccnc2)c2ccccc21", "Potency": "inconclusive [inhibitor, single point]"},
      {"smiles": "CCOC(=O)C(C)n1cnc2scc(-c3ccc(C)cc3)c2c1=O", "note": "(stereo not given)", "Potency": "inconclusive [inhibitor, single point]"},
      {"smiles": "CCCOc1ccc(C2=CC(=O)C[C@H](c3ccc(OC)cc3)C2)cc1", "Potency": "inconclusive [inhibitor, single point]"},
      {"smiles": "Cc1cc(F)ccc1C(O)c1ncc(-c2cccc(OCc3ccccc3)c2)[nH]1", "note": "(stereo not given)", "Potency": "inconclusive [inhibitor, single point]"},
      {"smiles": "COc1cc(NC(=S)NC2CC(C)(C)NC(C)(C)C2)c(OC)cc1Cl", "Potency": "inconclusive [inhibitor, partial curve, poor fit]"},
      {"smiles": "CCc1ccc(-c2cc(C)no2)cc1S(=O)(=O)N1CCN(c2ccc(C(C)=O)cc2)CC1", "Potency": "inconclusive [inhibitor, partial curve, poor fit]"},
      {"smiles": "Clc1ccc(-c2nnc(CSc3nnc(-c4cccs4)n3Cc3ccccc3)o2)cc1", "Potency": "active: 10 µM"},
      {"smiles": "O=C(N/N=C/c1c[nH]c2ccc(Br)cc12)c1ccncc1", "Potency": "inactive"},
      {"smiles": "COc1ccc(CN2C(=O)c3ccccc3C(/C=N\\OCc3ccc(C)cc3)C2=O)cc1", "note": "(stereo not given)", "Potency": "inconclusive [inhibitor, single point]"},
      {"smiles": "Cc1nn(C)c(Nc2ccc(Br)cc2)c1Br", "Potency": "inconclusive [inhibitor, partial curve, poor fit]"},
      {"smiles": "CC1(C)COC(c2cccn2Cc2ccc(F)cc2Cl)=N1", "Potency": "inconclusive [inhibitor, single point]"},
      {"smiles": "CCC(C)Nc1nc(OC(C(F)(F)F)C(F)(F)F)nc(OC(C(F)(F)F)C(F)(F)F)n1", "note": "(stereo not given)", "Potency": "inconclusive [inhibitor, full curve, poor fit]"},
      {"smiles": "NC(=O)Cn1cc(/C=N\\NS(=O)(=O)c2ccc(Cl)cc2)c2ccccc21", "Potency": "inconclusive [inhibitor, single point]"},
      {"smiles": "Nc1nc(-c2ccccc2)c(CCCNc2ccccc2)c(=O)[nH]1", "Potency": "inconclusive [inhibitor, single point]"},
      {"smiles": "Cc1c(Cl)cccc1N=C1SCCN1C(=O)CN1C(=O)NC2(CCCC2)C1=O", "Potency": "inconclusive [inhibitor, partial curve, poor fit]"},
      {"smiles": "Cc1cc(NC(=O)CSc2nnnn2-c2ccc(C)c(C)c2)no1", "Potency": "inconclusive [inhibitor, partial curve, poor fit]"},
      {"smiles": "COc1ccc(CN(C)CC2CCCN(CCc3ccc(Cl)cc3)C2)cc1OC", "note": "(stereo not given)", "Potency": "inconclusive [inhibitor, full curve]"},
      {"smiles": "ClCCn1c(CCl)nc2ccc(Cl)cc21", "Potency": "inactive"},
      {"smiles": "[O-][n+]1c2ccccc2cc2ccccc21", "Potency": "inactive"},
      {"smiles": "Cc1ccc(S(=O)(=O)N2CCCC2CNC(=O)C(=O)Nc2ccc(F)cc2)cc1", "note": "(stereo not given)", "Potency": "inconclusive [inhibitor, partial curve]"},
      {"smiles": "O=C(CCCc1ccccc1)c1ccccc1", "Potency": "inactive"},
      {"smiles": "CN(C)c1ccc(CNC(=O)C(Cc2ccccc2)NS(=O)(=O)c2ccc3c(c2)oc(=O)n3C)cc1", "note": "(stereo not given)", "Potency": "inactive"},
      {"smiles": "CCn1c(SCC(=O)Nc2ccc(N(C)C)cc2)nnc1-c1cccc(C)c1", "Potency": "inconclusive [inhibitor, full curve, poor fit]"},
      {"smiles": "CCCn1nc(NC(=O)C2CCCO2)c2cc3ccc(C)cc3nc21", "note": "(stereo not given)", "Potency": "inconclusive [inhibitor, single point]"},
      {"smiles": "CCC(C)(C)c1ccc(OCCCC[n+]2cccc(C)c2C)c(C(C)(C)CC)c1", "Potency": "inconclusive [inhibitor, partial curve, poor fit]"},
      {"smiles": "S=c1nc(-c2sccc2OCc2ccc(Cl)cc2Cl)[nH][nH]1", "Potency": "inactive"},
      {"smiles": "N#C/C(=N\\Nc1cccc([N+](=O)[O-])c1)C(=O)c1ccc(Br)cc1", "Potency": "inactive"},
      {"smiles": "CC(=O)NC/C(C)=N\\Nc1ccc([N+](=O)[O-])cc1", "Potency": "inconclusive [inhibitor, full curve, poor fit]"},
      {"smiles": "CN(CC(=O)Nc1cccc(C#N)c1)Cc1ccc(Cl)cc1", "Potency": "inconclusive [inhibitor, partial curve, poor fit]"},
      {"smiles": "Cc1ccc(-c2cc(C(=O)N3CCN(S(=O)(=O)c4ccc(Br)s4)CC3)[nH]n2)c(C)c1", "Potency": "inconclusive [inhibitor, full curve]"},
      {"smiles": "Cc1noc(C)c1COc1ccc(C(=O)N2CCN(c3cccc(Cl)c3)CC2)cc1", "Potency": "inconclusive [inhibitor, single point]"},
      {"smiles": "CC(=O)c1ccc(NC(=O)CSc2ccc3nc(-c4ccccc4)cn3n2)cc1", "Potency": "inactive"},
      {"smiles": "COc1ccc(C)cc1NC(=S)N1CCN(c2ccccn2)CC1", "Potency": "inactive"},
      {"smiles": "O=C(NCc1ccc(F)cc1)c1cc2c(s1)-c1ccccc1SC2", "Potency": "inconclusive [inhibitor, single point]"},
      {"smiles": "CSc1nc(N)nc2c1ncn2CC(=O)N1CCN(Cc2c(C)cc(C)cc2C)CC1", "Potency": "inconclusive [inhibitor, full curve, poor fit]"},
      {"smiles": "Cc1cc2c(ncn2C(C)C)c(NS(=O)(=O)c2ccc(F)cc2)c1C", "Potency": "inconclusive [inhibitor, single point]"},
      {"smiles": "Cc1cc(OCc2cccc(S(=O)(=O)N3CCOCC3)c2)ccc1Cl", "Potency": "inconclusive [inhibitor, single point]"},
      {"smiles": "CCCCOC(=O)c1ccc(NC(=O)/C(C#N)=C/c2ccc(-c3ccccc3)o2)cc1", "Potency": "inactive"},
      {"smiles": "COc1ccc(C(O)c2nc(-c3cccc(C(F)(F)F)c3)cs2)cc1", "note": "(stereo not given)", "Potency": "inconclusive [inhibitor, single point]"},
      {"smiles": "CCCCNC(=S)N1CCC(Cc2ccccc2)CC1", "Potency": "inconclusive [inhibitor, partial curve, poor fit]"},
      {"smiles": "CCOc1ccc(N2C(=O)CC(SC(=NC)Nc3cccc(OC)c3)C2=O)cc1", "note": "(stereo not given)", "Potency": "inconclusive [inhibitor, partial curve]"},
      {"smiles": "Cc1ccc(C(=O)Nc2nc(-c3ccccc3)c(-c3ccccc3)o2)cc1", "Potency": "inconclusive [inhibitor, single point]"},
      {"smiles": "COc1ccc(C[C@H]2CN3C(=NC[C@H]3Cc3ccccc3)N2CCNC(=O)c2ccc(C)c(Br)c2)cc1", "Potency": "inconclusive [inhibitor, single point]"},
      {"smiles": "CCOc1ccc(CNC(=O)CCCn2ccc3cc(S(=O)(=O)N4CCCC4)ccc32)cc1", "Potency": "inconclusive [inhibitor, single point]"},
      {"smiles": "COc1ccc(S(=O)(=O)N2CCC(C)CC2)cc1N(C)S(=O)(=O)c1ccccc1", "Potency": "inactive"},
      {"smiles": "CC(C)CCN(CC(=O)NC(C)(C)C)C(=O)C(=O)Nc1ccc2c(c1)OCCO2", "Potency": "inconclusive [inhibitor, single point]"},
      {"smiles": "COc1ccc(C(=O)COC(=O)C2CCN(c3ccc(C(F)(F)F)cn3)CC2)c(OC)c1", "Potency": "inconclusive [inhibitor, single point]"},
      {"smiles": "O=C(COC(=O)c1cccc(NS(=O)(=O)c2ccc(F)c(F)c2)c1)NC(=O)NC1CCCCC1", "Potency": "inconclusive [inhibitor, single point]"},
      {"smiles": "O=C(N/N=C/C=C/c1ccccc1)c1cc(C2CC2)[nH]n1", "Potency": "inconclusive [inhibitor, single point]"},
      {"smiles": "COc1cccc(CCNc2ncnc3c2nnn3C)c1", "Potency": "inactive"},
      {"smiles": "COc1ccc2c(c1)OC[C@H]1[C@H]2N2C(=O)c3cc(OC)ccc3NC(=O)[C@@]2(C)[C@H]1c1ccccc1", "Potency": "inactive"},
      {"smiles": "CC(C)CC(=O)NC(=S)N(Cc1ccccc1)Cc1ccccc1", "Potency": "inconclusive [inhibitor, partial curve, poor fit]"},
      {"smiles": "Cc1cccc(-c2nnc(SCC#N)n2-c2cccc(Cl)c2)c1", "Potency": "inconclusive [inhibitor, full curve, poor fit]"},
      {"smiles": "Cc1ccc2c(c1)nc(SCC(O)c1ccc(Br)cc1)n2C", "note": "(stereo not given)", "Potency": "inactive"},
      {"smiles": "COC(=O)c1ccc(C(=O)OC)c(NC(=O)c2c(-c3ccccc3)c(-c3ccccc3)nn(C)c2=O)c1", "Potency": "inactive"},
      {"smiles": "O=S(=O)(c1ccc(N2CCN(Cc3ccccc3)CC2)nc1)N1CCCC1", "Potency": "inconclusive [inhibitor, single point]"},
      {"smiles": "CCOC(=O)C(=Cc1c[nH]c2ccc(S(=O)(=O)N(C)C)cc12)C(=O)OCC", "Potency": "inconclusive [inhibitor, single point]"},
      {"smiles": "COC(=O)c1cc(CSc2nnc(-c3ccccc3)c(-c3ccccc3)n2)oc1C", "Potency": "inconclusive [inhibitor, partial curve, poor fit]"},
      {"smiles": "Cn1c(=O)c2sccc2n2c(CCC(=O)NCc3ccccc3)nnc12", "Potency": "inactive"},
      {"smiles": "COC(=O)[C@]12CCCCC=C1N(CCC1=CCCCC1)C(=O)[C@H](CC(=O)NCc1cccc(C(F)(F)F)c1)C2", "Potency": "inconclusive [inhibitor, single point]"}
    ]}
  ]
}
